From PubChem BioAssay AID1347073 (National Center for Advancing Translational Sciences (NCATS), 2019)
Hit rate of the full screen: of about 45,000 compounds, about 200 (0.44%) were called active. Another 7% or so got no clear call; they are omitted. The call rests on the fitted dose curve; in most records, active means well fitted activation curve with a large enough effect; inconclusive means small, poorly fitted or top-dose-only effect; inactive means no such curve, though single readings can be large or run the other way. The list shows a part of the results.

Test: qHTS of TDP-43 Inhibitors: NCGC Sytravon Library Screen; further: 0% is about no effect; nearly all actives have a fitted effect of over 55% in size
Conditions: yeast TDP-43 toxicity rescue, BacTiter-Glo growth, 24 h; series mostly up to 46.1 µM; growth rescue (activation): at the top concentration
How it was run: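 TDP-43-expressing yeast, pregrown in raffinose, seeded at OD600 0.02 in galactose medium with compound for 24 hr at 30 deg C. Growth read by BacTiter-Glo luminescence, so rescue of toxicity appears as activation.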

Which “growth rescue (activation)” value does the source give for `CCC(CC)NC(=O)c1cc([N+](=O)[O-])ccc1N1CCOCC1` here?
Its value is inactive: 7.05%.

For `Cn1ccnc1SCC(=O)Nc1ccc(Cl)cn1`, which “growth rescue (activation)” value is on record?
The value was inactive: 12.1%.

Which “growth rescue (activation)” value does the source give for `COc1ccc(-c2csc3nc(-c4ccc(F)cc4)oc(=O)c23)cc1` here?
Its value is inactive: -13%.

For `N#CC(C#N)=C(Nc1ccc(F)cc1)SCc1cccc(F)c1`, which “growth rescue (activation)” value is on record?
Its value is inactive: -2.26%.

With `CCOc1ccccc1C(=O)N[C@H](C(=O)OCc1csc(CC(=O)Nc2ccc(C)cc2)n1)C(C)C` as the molecule, how does the “growth rescue (activation)” value read?
Its value is inactive: 4.96%.

Which “growth rescue (activation)” value does the source give for `CC12CCC(=O)N1C(C(=O)Nc1cccc3ccccc13)CS2` (centres undefined) here?
Its value is inactive: 3.7%.

With `Oc1c(C=Nc2ccccc2Cl)[nH]c2ccccc12` as the molecule, how does the “growth rescue (activation)” value read?
Its value is inactive: 2.86%.

With `O=C1CN(Cc2nc3cc(Cl)ccc3c(=O)[nH]2)CCN1` as the molecule, how does the “growth rescue (activation)” value read?
Its value is inactive: -26.4%.

With `CCn1ccc(C(=O)Nc2ccccc2SC)n1` as the molecule, how does the “growth rescue (activation)” value read?
The value was inactive: -0.494%.

Which “growth rescue (activation)” value does the source give for `Nc1nonc1N/N=C/c1c(O)ccc2ccccc12` here?
Its value is inactive: -3.77%.

For `CCN(CC(=O)NCc1cccs1)C(=O)c1cccc(S(=O)(=O)N(C)C)c1`, which “growth rescue (activation)” value is on record?
The value was inactive: 11.9%.

Which “growth rescue (activation)” value does the source give for `CC(=O)Nc1ccc(NC(=O)C(C)Sc2n[nH]c(=O)n2Cc2ccccc2)cc1` (centres undefined) here?
Its value is inactive: 13.1%.

Which “growth rescue (activation)” value does the source give for `COc1ccc(NC(=O)C(=O)NNC(=O)c2cccs2)cc1` here?
Its value is inactive: 5.75%.

For `O=c1c2c(nc3nc(NCc4ccc(Cl)cc4)[nH]n13)CCC2`, which “growth rescue (activation)” value is on record?
Its value is inactive: -9.61%.

For `CCCc1nc2nc(C)c(NS(=O)(=O)c3ccc(C4CCCCC4)cc3)c(=O)n2[nH]1`, which “growth rescue (activation)” value is on record?
Its value is inactive: 14.5%.

For `CCOc1ccc(CCNCc2c(C(=O)O)n(Cc3ccc(C)cc3)c3cc(OC)ccc23)cc1`, which “growth rescue (activation)” value is on record?
The value was inactive: 11.3%.

For `CCCCc1ccc(NC(=O)C(=O)NCCN2CCN(C(=O)c3ccc([N+](=O)[O-])cc3)CC2)cc1`, which “growth rescue (activation)” value is on record?
Its value is inactive: 4.04%.

With `CC1=C(C)CC(C(=O)N2CCN(C/C=C/c3ccccc3)CC2)C(C(=O)O)C1` (centres undefined) as the molecule, how does the “growth rescue (activation)” value read?
The value was inactive: 5.32%.

With `Cc1cc(NC(=O)CCC(=O)N(CC(=O)NC2CCCC2)c2cccc(F)c2)no1` as the molecule, how does the “growth rescue (activation)” value read?
Its value is inactive: 17.5%.

Which “growth rescue (activation)” value does the source give for `Cc1c(CNC2CCCC(C)C2C)c(C(=O)O)c(C)n1Cc1ccccc1` (centres undefined) here?
The value was inactive: -0.161%.

For `Cc1ccc(C)c(N(C(=O)c2csnn2)C(C(=O)NC2CCCC2)c2cccnc2)c1` (centres undefined), which “growth rescue (activation)” value is on record?
Its value is inactive: -10.6%.

With `CCCC(=O)N=C1SC2CS(=O)(=O)CC2N1c1ccc(-c2nc3ccc(C)cc3s2)cc1` (centres undefined) as the molecule, how does the “growth rescue (activation)” value read?
Its value is inactive: 15.2%.

With `O=C(COc1ccc(S(=O)(=O)N2CCOCC2)cc1)NC1CC1` as the molecule, how does the “growth rescue (activation)” value read?
Its value is inactive: -25.5%.

Which “growth rescue (activation)” value does the source give for `CCOC(=O)C1(Cc2ccc(OC)cc2)CCN(C(=O)CCc2cccnc2)CC1` here?
The value was inactive: 13.1%.

For `CCOC(=O)c1cccc(OC(=O)CCNC(=O)c2ccc(Cl)cc2)c1`, which “growth rescue (activation)” value is on record?
The value was inactive: 17.7%.

For `COc1ccc(C2=NN(C(=O)c3cccs3)C(O)(C(F)(F)F)C2)cc1` (centres undefined), which “growth rescue (activation)” value is on record?
Its value is inactive: 15.8%.

With `Cc1cccc(NC(=O)CN2C(=O)CNC2=O)c1` as the molecule, how does the “growth rescue (activation)” value read?
Its value is inactive: 17.5%.

With `COc1ccc(C(=O)C2CCCN(C(=O)c3noc4c3CCCC4)C2)cc1F` (centres undefined) as the molecule, how does the “growth rescue (activation)” value read?
The value was inactive: 3.09%.

Which “growth rescue (activation)” value does the source give for `Cc1ccc(S(=O)(=O)N2CCN(CC(=O)N/N=C\C(Cl)=C\c3ccccc3)CC2)cc1` here?
The value was inactive: 2.92%.

For `CSC1=N/C(=C\C=C\c2cccs2)C(=O)S1`, which “growth rescue (activation)” value is on record?
The value was inactive: -93.4%.

With `O=C(OCc1c(F)cccc1Cl)c1cnc2ccccc2n1` as the molecule, how does the “growth rescue (activation)” value read?
Its value is inactive: -9.99%.

Which “growth rescue (activation)” value does the source give for `CCn1cc(CN2CCCC(C(=O)c3ccc(-c4ccccc4)c(F)c3)C2)cn1` (centres undefined) here?
Its value is inactive: 26.2%.

With `CN(C)CCNC(=O)c1ccc2nc([C@@H]3O[C@H](CO)[C@H](O)[C@H](O)[C@H]3O)[nH]c2c1` as the molecule, how does the “growth rescue (activation)” value read?
The value was inactive: 0.714%.

With `C=CCNC(=O)C1CCN(S(=O)(=O)c2ccc(Br)cc2)CC1` as the molecule, how does the “growth rescue (activation)” value read?
The value was inactive: -6.46%.

Which “growth rescue (activation)” value does the source give for `Cc1nn(C(=O)c2nn(C)cc2Cl)c(C)c1Br` here?
The value was inactive: -5.5%.

For `COc1ccccc1C(=O)Nc1nc2ccccc2[nH]1`, which “growth rescue (activation)” value is on record?
Its value is inactive: -87.3%.

For `CC1(C(=O)NS(=O)(=O)C2CC2)CCN(C(=O)COc2ccc(Cl)cc2Cl)C1` (centres undefined), which “growth rescue (activation)” value is on record?
The value was inactive: 3.13%.

Which “growth rescue (activation)” value does the source give for `C[C@H](NC(=O)c1cc2cc(Cl)ccc2n1C)C(=O)N1CCC(C(=O)O)CC1` here?
The value was inactive: -4.39%.

For `COc1ccc(NC(=O)c2ccc(S(=O)(=O)N(C)C)cc2)cc1`, which “growth rescue (activation)” value is on record?
Its value is inactive: 13.3%.

For `Cc1cccc(N(C(=O)c2csnn2)C(C(=O)NCc2ccccc2)c2ccncc2)c1` (centres undefined), which “growth rescue (activation)” value is on record?
Its value is inactive: -19.8%.

Which “growth rescue (activation)” value does the source give for `CC1CCCN(S(=O)(=O)c2ccc(NC(=O)CNC3CCCC3)cc2)C1` (centres undefined) here?
Its value is inactive: -12.8%.

For `COc1ccc(CCC(=O)Nc2nccs2)cc1OC`, which “growth rescue (activation)” value is on record?
Its value is inactive: -12%.

Which “growth rescue (activation)” value does the source give for `Cc1ccccc1NC(=O)c1cccc(N2C(=O)C3CCC(C)CC3C2=O)c1` (centres undefined) here?
The value was inactive: 13.6%.

For `COc1ccc(CNC(=O)C/C(C)=N/NC(=O)c2ccccc2OC)cc1`, which “growth rescue (activation)” value is on record?
Its value is inactive: 7.68%.

With `Cc1ccc(/C=C2/C(=O)N(c3ccccc3)C(=S)N2C)o1` as the molecule, how does the “growth rescue (activation)” value read?
Its value is inactive: -3.68%.

With `CCOC(=O)/C(C#N)=C/c1c(N2CCN(C)CC2)nc2ccccn2c1=O` as the molecule, how does the “growth rescue (activation)” value read?
Its value is inactive: 3.65%.

With `COc1cc(C(=O)NC2CC(C)(C)Cc3c2cnn3-c2ccccc2)cc(OC)c1OC` (centres undefined) as the molecule, how does the “growth rescue (activation)” value read?
Its value is inactive: -12.9%.

For `CCOC(=O)Cc1csc(SCC(=O)NC2CCCC2)n1`, which “growth rescue (activation)” value is on record?
Its value is inactive: 12.9%.

Which “growth rescue (activation)” value does the source give for `COc1ccc(N(CC(=O)NCc2ccc(C)cc2)S(=O)(=O)c2ccccc2[N+](=O)[O-])c(OC)c1` here?
The value was inactive: 6.27%.

For `Nc1nnc(CC(=O)NCc2ccccc2)s1`, which “growth rescue (activation)” value is on record?
Its value is inactive: -5.46%.

With `COc1cc(F)ccc1-c1cc(C(=O)Nc2ccc(C)c(NS(C)(=O)=O)c2)[nH]n1` as the molecule, how does the “growth rescue (activation)” value read?
The value was inactive: -4.85%.

With `O=c1c(C(c2ccc(Br)cc2)c2c(O)nc3n(c2=O)CCS3)c(O)nc2n1CCS2` as the molecule, how does the “growth rescue (activation)” value read?
The value was inactive: 4.52%.

For `CC(C)c1nnc(SCC(=O)NC2CCCC2)n1C`, which “growth rescue (activation)” value is on record?
The value was inactive: 5.56%.

For `Cc1sc2nc(CN3CCCC3)nc(N3CCN(C(=O)c4ccco4)CC3)c2c1C`, which “growth rescue (activation)” value is on record?
The value was inactive: 15.4%.

For `OCCN1CCN(CC#CCn2c3ccccc3c3ccccc32)CC1`, which “growth rescue (activation)” value is on record?
The value was inactive: -27.4%.

For `O=C1COc2ccc(S(=O)(=O)NCCc3ccccc3)cc2N1`, which “growth rescue (activation)” value is on record?
The value was inactive: 3.8%.

For `COc1ccc(NC(=S)Nc2ccccc2C(F)(F)F)cc1`, which “growth rescue (activation)” value is on record?
Its value is inactive: 14.3%.

Which “growth rescue (activation)” value does the source give for `Cc1ccc(-n2cccn2)c(CN2CCCC(CNC(=O)c3ccc(F)cc3)C2)c1` (centres undefined) here?
Its value is inactive: 17.4%.

Which “growth rescue (activation)” value does the source give for `COCCNC(=O)CN1CCC(NC(=O)c2ccco2)CC1` here?
The value was inactive: 2.64%.

Which “growth rescue (activation)” value does the source give for `Cc1cccc(CC(C)NC(=O)CCc2nnc(CCCCc3ccccc3)o2)n1` (centres undefined) here?
The value was inactive: 7.79%.

For `C/C(N)=C(/C#N)C(=O)CSc1cc(C)c2ccccc2n1`, which “growth rescue (activation)” value is on record?
Its value is inactive: 12.3%.

For `CC1CCC(=NNC(=O)Cc2cccn2C)CC1` (centres undefined), which “growth rescue (activation)” value is on record?
The value was inactive: 11.5%.

With `CC1CCc2c(sc(NC(=O)c3ccco3)c2C(=O)O)C1` (centres undefined) as the molecule, how does the “growth rescue (activation)” value read?
The value was inactive: -92.9%.

For `CCOc1ccc(NC(=O)C2CCCN(c3nnc(-n4c(C)ccc4C)s3)C2)cc1` (centres undefined), which “growth rescue (activation)” value is on record?
Its value is inactive: 4.59%.

For `COCCn1cnnc1SCC(=O)Nc1cccc(S(=O)(=O)N(C)c2ccccc2)c1`, which “growth rescue (activation)” value is on record?
The value was inactive: 7.79%.

Which “growth rescue (activation)” value does the source give for `Nc1nnc(CCCCCc2nnc(N)s2)s1` here?
Its value is inactive: -13.7%.

Which “growth rescue (activation)” value does the source give for `COC(=O)c1sccc1NC(=O)Nc1cc(C)ccc1C` here?
Its value is inactive: 9.21%.

Which “growth rescue (activation)” value does the source give for `C=CCN=C1NN=C(c2ccc3c(c2)OCCO3)CS1` here?
The value was inactive: 7.06%.

With `CC1CN(S(=O)(=O)c2cc(C(=O)NC(C)c3cccnc3)ccc2Cl)CC(C)O1` (centres undefined) as the molecule, how does the “growth rescue (activation)” value read?
The value was inactive: 12.1%.
